{
  "source": "PubChem BioAssay (Tox21)",
  "note": "The inconclusive results got no clear call from the source; some entries with a clear call stand among them for comparison. A potency beside an inconclusive call is a rough fit, not a confirmed value. Active and inactive are the calls of the source. Calls come from the whole dose curve; as a rule, active = well fitted activation curve with a large enough effect in the repeat runs; inconclusive = weak or mixed curves, or effect the other way; inactive = no such curve, though single readings can be large or run the other way. % is set by controls: 0 for no effect and ±100 for the full control effect; potency is the fitted concentration of half-maximal effect; tags give direction and shape of the fitted curve.",
  "data": [
    {"assay": "qHTS assay to identify small molecule agonists of the retinoic acid receptor (RAR) signaling pathway (AID 1159553)", "settings": "C3RL4 RARE luciferase reporter, agonist, 6 h; activation: at 73.3 µM (top of the series) unless noted", "summary_of_the_method": "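Luminescence was measured 30 min after luciferase reagent addition at room temperature. Before that, C3RL4 reporter cells (1,000 per well, plated overnight) were treated with compound for 6 hr at 37 C and 5% CO2.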", "values": [
      {"compound": "COC(=O)c1ccccc1C", "activation": "inactive: -2.18%"},
      {"compound": "COS(=O)(=O)C(F)(F)F", "activation": "inconclusive: -10.5% [phenotype inactive] [at 94.8 µM]"},
      {"compound": "NC(=O)N(O)[C@@H]1COc2cc(OCc3ccccc3)ccc21", "Potency": "inconclusive: 122 nM [activator, full curve]"}
    ]}
  ]
}
